Test results published in PubChem BioAssay (NCI).
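The compound was tested at five concentrations on cells cultured in 96-well plates, with a 48-hour exposure period. GI50: concentration for 50% inhibition of growth. TGI: concentration producing complete growth inhibition.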

System: NCI-H322M lung
Assay: DTP human tumour cell line panel, 48 h

SMILES	GI50	TGI
O=C(Nc1nc2ccc([N+](=O)[O-])cc2s1)Nc1cc(Cl)ccc1I	5.06 µM	17.7 µM
C=C1CC[C@@H]2[C@]3(C)COC(c4cn(-c5ccccc5)nc4-c4cccc([N+](=O)[O-])c4)O[C@@H]3CC[C@@]2(C)[C@@H]1C/C=C1/C(=O)OC[C@H]1O (stereo not given in full)	17.6 µM	> 100 µM
COC(=O)CCn1c(-c2ccc(-n3cc(-c4ccc(O[C@H]5O[C@@H]6OC7(C)CC[C@H]8[C@H](C)CC[C@@H]([C@H]5C)[C@@]68OO7)cc4)nn3)cc2)nc2ccccc21	0.436 µM	> 9.25 µM
COc1ccc(C(=O)/C=C/c2ccc(Cl)c(C(F)(F)F)c2)cc1S(N)(=O)=O	1.77 µM	6.52 µM
COc1ccc(-c2nc3ccc(-c4nnc(SCC(=O)Nc5ccc(/C(C)=N\O)cc5)o4)cc3[nH]2)cc1	7.54 µM	20.9 µM
